Test system: primate Ig (pool of primate serum)
Experiment: In vitro antigenicity (IVA) ELISA
Details: serum dilution value at OD 0.3 related to standard Z00342 set to 100; below 100 = lower primate Ig-binding

Work on “Affibody® molecule XI with DOTA: Affibody molecule XI with DOTA conjugated on an internal cystein (position 42) (YAKELRNAYWEIALLPNLTNQQKRAFIRKLYDDPSQSSELLCEAKKLNDSQA)” yielded an IVA-Value of 1.

— US8883120B2, “Polypeptides having affinity for HER2” (Affibody AB, priority 2007, dated 2014)
